Source: the supplement of paper PMC10338343
± gives the standard deviation. This is a selection; strong and weak results do not stand in their true shares.

test system: MIWI (PIWIL1) piRISC loaded with piRNA #1 (30 nt); test: pre-steady-state target cleavage rate (min^-1); MIWI and MILI are mouse PIWI proteins and EfPiwi is from a freshwater sponge; tags in brackets are library labels; higher = faster piRNA-guided slicing of the target; conditions: guide: piRNA #1 5'p-UGAGGUAGUAGGUUGUAUAGUAUCCAGAGG; auxiliary factor: 500 nM mouse GTSF1
Outline: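 The pre-steady-state cleavage rate came from a burst-and-steady-state fit to pooled data from three Cleave-'n-Seq trials, in which uncleaved targets were sequenced and normalised to depth and to weakly complementary targets. Each reaction held 0.1 nM transcribed, DNA-blocked target RNA library and 1 nM active affinity-purified piRISC carrying one synthetic guide, with or without 500 nM GTSF1 partner protein, in HEPES–potassium acetate buffer at 33 °C for 0–8 or 0–960 min. k3 was capped at 0.0001 min^-1.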

| Sequence | pre-steady-state target cleavage rate |
| --- | --- |
| GGAGACCUAUCUUUACAACCUACUAGCUCA | 0.0562 ± 0.015 |
| GGUCUGGAUACUAUACAACCUAGCUACCUCA | 0.255 ± 0.021 |
| GGACUGGAUACUAUACAACCUACCACCUCA | 0.387 ± 0.047 |
| GGAGACGAUACUAUACAACCUACUAGCUCA | 0.528 ± 0.055 |
| GGACUGGAUACUAUAAACCUACUACCUCA | 0.989 ± 0.12 |
| GGAGCGGAUACUAUACAACCUACUACCUCA | 1.81 ± 0.13 |
| CCUCUGGUUACUAUACAACCUUCUACCUCA | 0.907 ± 0.044 |
| GGAGACCUAUGAUAUGUUGGUACUACGUGA | < 0.0001 |
| GGAGACCUUAGUAUACAACCUACUACGUCA | 0.162 ± 0.021 |
| GGUCUGGAUACUAUACAACCUACUACGACA | 0.34 ± 0.045 |
| GGAGACCUAACUAGUACAACCUACUACCUCA | 0.28 ± 0.046 |
| GGACUGGAUACUAUACAACCACUACCUCA | 0.00431 ± 0.0027 |
| GGUCUGGAUACAAUACUACCUACUACCUCA | 1.09 ± 0.092 |
| GGAGACCUUACUAUACUACCUACUUCCUCA | 0.0648 ± 0.013 |
| GCUCUGGAUACUAUACAACCUACUACGAGA | 0.438 ± 0.086 |
| GGAGACGAUACUAUACAACCUACUAUCUCA | 1.51 ± 0.11 |
| GGUCUCGAUACUAUACAACCUACUACGUCA | 0.675 ± 0.062 |
| GGAGAGCAUACUAUACAACCUUCUACCUCA | 0.636 ± 0.034 |
| GGAGUGGAUACUUUACAACCAACUACCUCA | 0.0858 ± 0.0074 |
| GCUCUGGAUACAAUACAACCUACUAGCUCA | 0.985 ± 0.087 |
| GGUCUGGAUACUAUACAACCUAGUACGUCA | 0.00588 ± 0.003 |
| GCUCUGGAUACAAUACAACGUACUACCUCA | 0.941 ± 0.057 |
| GCUCUGGAUACUCAUACAACCUACUACCUCA | 1.31 ± 0.068 |
| GGAGACCUUACUAUACAACCUACUACUCA | 0.924 ± 0.088 |
